According to PubChem BioAssay AID504832 (National Center for Advancing Translational Sciences (NCATS), 2011):
Among all 310,000 compounds or so, about 18,000 (5.8%) were called active. This list was built around the results that the source calls inconclusive (neither active nor inactive); the mix of calls is not that of the screen. The call rests on the fitted dose curve; in most records, active means well fitted inhibition curve with a large enough effect; inconclusive means small, poorly fitted or top-dose-only effect, or another doubt; inactive means no such curve, though single readings can be large or run the other way. Potencies of inconclusive entries are left out as doubtful fits.

Assay: Primary qHTS for delayed death inhibitors of the malarial parasite plastid, 48 hour incubation
Settings: P. falciparum luciferase growth in erythrocytes; series mostly up to 28.7 µM; activity change, negative = inhibition: at the top concentration
Summary of the method: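 Luminescence readout; reporter = integrated firefly luciferase in P. falciparum. RBC culture at 2% hematocrit, 0.1% parasitemia final, 37 C/5% CO2; decreased signal taken as growth inhibition.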
On the % scale 0 is the no-effect control and ±100 the full control effect; potency means the concentration at half of the fitted maximal effect; tags describe the fitted curve by direction and shape.

SMILES	activity change, negative = inhibition	Potency
COc1cccc(CN(CC(=O)NCc2ccc(F)cc2)C(=O)c2ccco2)c1	inactive: -2.26%	–
Cc1ccc(-n2c(C)cc(C(=O)Cn3nc(C(=O)O)c4ccccc4c3=O)c2C)cc1	inactive: 9.45%	–
Cc1nc2cc(NS(=O)(=O)c3c(C)c(C)cc(C)c3C)ccc2s1	–	inconclusive [inhibitor, single point]
CC(C)Oc1ccc(C(CC(=O)O)NC(=O)Cc2ccccc2)cc1 (stereo not drawn)	inactive: -12.2%	–
CCOc1ccccc1NC(=O)CCCc1nc2ccccc2c(=O)[nH]1	inactive: -14.8%	–
N#C/C(=C\Nc1ccc2cn[nH]c2c1)c1nc(-c2ccc(Cl)cc2)cs1	–	inconclusive [inhibitor, full curve]
CCCCCN(C(=O)CCC(=O)OCCOc1ccc(OCC)cc1)c1c(N)n(CCCC)c(=O)[nH]c1=O	–	inconclusive [inhibitor, single point]
O=C(CSc1nnc(-c2ccc(NS(=O)(=O)c3ccccc3)cc2)o1)NCC1CCCO1 (stereo not drawn)	–	inconclusive [inhibitor, single point]
CN(C)S(=O)(=O)c1ccc(NC(=O)CNc2cc(S(=O)(=O)N3CCCC3)ccc2OCC(F)(F)F)cc1	–	inconclusive [inhibitor, partial curve, poor fit]
Cc1ccc(CNC(=O)C2CCCN(S(=O)(=O)N3CCC(C)CC3)C2)cc1 (stereo not drawn)	–	inconclusive [inhibitor, single point]
CCOC(=O)C1=C(C)N=c2s/c(=C/c3ccccc3)c(=O)n2C1c1ccc(OC)c(OC)c1 (stereo not drawn)	–	inconclusive [inhibitor, partial curve, poor fit]
N#CC(C(=S)Nc1ccccc1)c1nc2ccccc2[nH]1 (stereo not drawn)	–	inconclusive [inhibitor, partial curve, poor fit]
CCCc1nnc(SCC(=O)O)n1CC	–	inconclusive [inhibitor, single point]
CC(=O)Nc1cccc(NC(=O)c2c(-c3c(Cl)cccc3Cl)noc2C)c1	–	inconclusive [inhibitor, partial curve, poor fit]
CCCCn1c(=O)c(C(=O)NCc2ccco2)c(O)c2ccccc21	–	inconclusive [inhibitor, partial curve]
Cc1cccc(C)c1OCC(=O)N/N=C/c1ccc2c(c1)OCO2	inactive: 19.5%	–
CCN(CC)CCN(C)Cc1nc(C(c2ccccc2)c2ccccc2)no1	–	inconclusive [inhibitor, partial curve, poor fit]
CCSc1nnc(SCC(=O)NC2CCCCC2)s1	inactive: 2.61%	–
COC(=O)c1c(N)n(Cc2ccc(OC)cc2)c2nc3ccccc3nc12	–	inconclusive [inhibitor, single point]
CCc1ccc(/C=C/C(=O)c2ccc(S(=O)(=O)N(C)C)cc2)cc1	inactive: 29.6%	–
COc1ccc(CN(C)C(=O)C2CCN(C(=O)Nc3ccccc3)CC2)cc1	–	inconclusive [inhibitor, full curve]
C/C(Cn1ncc(N2CCOCC2)c(Cl)c1=O)=N\O	inactive: 22.9%	–

SMILES	activity change, negative = inhibition	Potency
CC(C)(C)n1nnnc1C(c1ccccc1)N1CCc2ccccc2C1 (stereo not drawn)	–	inconclusive [inhibitor, full curve]
COC(=O)C(CC(C)C)NC(=O)c1cccs1 (stereo not drawn)	inactive: 34.9%	–
O=c1c2ccccc2nc(/C=C/c2ccc3c(c2)OCO3)n1-c1cccc(O)c1	–	inconclusive [inhibitor, single point]
COc1ccc(-c2[nH]c3ccccc3c2SCCNC(=O)c2ccccc2)cc1	inactive: -12.2%	–
c1ccc2nc(N3CCOCC3)c(N3CCOCC3)nc2c1	inactive: -2.2%	–
O=C1NC(=O)/C(=C/c2cccc([N+](=O)[O-])c2)N1	–	inconclusive [inhibitor, single point]
C[C@H](NC(=O)[C@H]1N2C(=O)c3ccccc3C2SC1(C)C)C(=O)N1CCC[C@H]1CO (stereo partly drawn)	–	inconclusive [inhibitor, full curve, poor fit]
Cc1ccc(NC(=O)C2CCN(S(=O)(=O)c3c(C)[nH]c(=O)[nH]c3=O)CC2)cc1	–	inconclusive [inhibitor, single point]
Cc1ccc(Cn2nnc3c(=O)[nH]c(C4CCCN(S(=O)(=O)c5ccc(F)cc5)C4)nc32)cc1 (stereo not drawn)	–	inconclusive [inhibitor, partial curve]
Cc1ccc(NC(=O)Cn2c(=O)c3cccn3c3ccccc32)c(C)c1	–	inconclusive [inhibitor, partial curve, poor fit]
CC1CCCN(C(=O)c2ccc3c(=O)n(C4CCCC4)c(=S)[nH]c3c2)C1 (stereo not drawn)	–	inconclusive [inhibitor, single point]
Cc1ccc(SCCC(=O)NC(C(C)C)C(C)C)cc1	–	inconclusive [inhibitor, partial curve]
Cc1cc(C)c(NC(=O)CNC(=O)Cc2ccc(S(=O)(=O)N3CCOCC3)s2)c(C)c1	–	inconclusive [inhibitor, single point]
O=[N+]([O-])c1c(NCCO)cc(N2CCCCC2)c2nonc12	–	inconclusive [inhibitor, single point]
CCOC(=O)C1=C(C)NC(C)=C(C(=O)OCC)C1C(=O)OCC(=O)N1CCC(C)CC1	–	inconclusive [inhibitor, partial curve, poor fit]
O=C(Nc1c2ccccc2nc2ccccc12)C(Cl)(Cl)Cl	–	active: 1.04 µM
CC(C)(C)c1cc(-c2ccccc2)no1	inactive: 4.4%	–
CC(C)N(Cc1ccccc1)C(=O)CN1C(=O)COc2ccc(S(=O)(=O)NC3CCCC3)cc21	–	active: 5.22 µM
COc1cccc(CC2(CO)CCCN(Cc3ccc(CO)o3)C2)c1 (stereo not drawn)	inactive: 10.8%	–
Cc1ccc(S(=O)(=O)N2CCN(C(C)C(=O)Nc3ccccc3-c3ccccc3)CC2)cc1 (stereo not drawn)	–	active: 9.28 µM
COc1ccc(NC(=O)CN(c2ccc(OC)cc2)S(=O)(=O)c2c(C)nn(C)c2C)cc1	–	inconclusive [inhibitor, single point]
